Measured values: PubChem BioAssay AID1745853 (National Center for Advancing Translational Sciences (NCATS), 2022)
Several values for one entry are separate records, joined by “and”; a condition that tells them apart may be missing. Equal values may be shown once. Some of the results follow. Shown are side measurements of this screen, not its main read-out; they come without a call.

Assays:
Assay in all cases: Primary Screen for Target Class Profiling of Small Molecule Inhibitors of Methyltransferases
[1] = target: Glycine N-methyltransferase (Homo sapiens) (UniProt Q14749); conditions: purified enzyme, MTase-Glo SAH luminescence; measured here: GNMT inhibition; at 40 µM; stronger effect = lower value
How it was run: (§1)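 Each enzyme was reacted with SAM and its substrate, with compounds tested once at 40 uM; SAH formed was read by MTase-Glo luminescence.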

[2] = target: Guanidinoacetate N-methyltransferase (Homo sapiens) (UniProt Q14353); conditions: purified enzyme, MTase-Glo SAH luminescence; measured here: GAMT inhibition; at 40 µM; stronger effect = lower value
How it was run: as §1

[3] = target: Histamine N-methyltransferase (Homo sapiens) (UniProt P50135); conditions: purified enzyme, MTase-Glo SAH luminescence; measured here: HNMT inhibition; at 40 µM; stronger effect = lower value
How it was run: as §1

[4] = target: Nicotinamide N-methyltransferase (Homo sapiens) (UniProt P40261); conditions: purified enzyme, MTase-Glo SAH luminescence; measured here: NNMT inhibition; at 40 µM; stronger effect = lower value
How it was run: as §1

[5] = target: Phenylethanolamine N-methyltransferase (Homo sapiens) (UniProt P11086); conditions: purified enzyme, MTase-Glo SAH luminescence; measured here: PNMT inhibition; at 40 µM; stronger effect = lower value
How it was run: as §1
% is scaled to controls: 0 for no effect and ±100 for the full control effect.

SMILES | activity change, negative = inhibition [1] [%] | activity change, negative = inhibition [2] | activity change, negative = inhibition [3] [%] | activity change, negative = inhibition [4] | activity change, negative = inhibition [5]
O=[S+]([O-])(c1ccccc1)N1CC(Oc2ccc(F)c(F)c2)C1 | -6.32 | -8.81% | -1.73 | -24.3% | -15.3%
O=C(CCCc1nnc2n3nc(-c4ccccc4)nc3c3ccccc3n12)NC1CCN(Cc2ccccc2)CC1 | -0.541 | 0.422% | -20.4 | 9.36% | -0.202%
C=C(CO[C@@H]1O[C@H](CO[C@@H]2OC[C@](O)(CO)[C@H]2O)[C@@H](O)[C@H](O)[C@H]1O)C1Cc2cc(C(C)=O)ccc2O1 (stereo not given in full) | 1 | -1.33% | 3.88 | -10.2% | 3.18%
Cc1ccc(Cn2c(=O)c3ccc(C(=O)NCC(C)C)cc3n3c(=O)n(CC(N)=O)nc23)cc1 | 4.33 | 0% | 7 | 3.97% | 4.36%
CN=C(NC#N)NCCSCc1nc[nH]c1C | -3.53 | 5.42% | 1.27 | -5.01% | 6.78%
COc1ccc(N2C(=O)c3ccc(-c4ccco4)n3CC2(C)C(=O)NCc2ccc(Cl)cc2)cc1OC (stereo not given) | -21 | 1.75% | -5.75 | -4.69% | -2.29%
C=C1CC2OC(=O)C(COC)C2C(OC(=O)/C(C)=C\C)CC2(C)OC1=CC2=O (stereo not given) | -1.42 | -3.86% | 7.96 | -15.3% | 4.95%
Cn1ccc(C(=O)NCc2nnc3n2C(C(=O)NCCc2ccc(Cl)cc2)CC3)n1 (stereo not given) | -7.68 | -4.51% | -5.64 | -9.03% | 6.04%
O=C(N[C@H]1CCC[C@H](CO)C1)C1CCN(c2nc3cc(Cl)c(-c4ccc(Cl)cc4)cc3o2)CC1 | -4.19 | 5.91% | 5.08 | -14.6% | 1.44%
Cc1ccc(Cn2c(=O)c3ccccc3n3c(=O)n(CC(=O)Nc4ccc5c(c4)OCO5)nc23)cc1 | 2.52 | 3.95% | 5.13 | 0.827% | 0.114%
CC(C)CCn1c(=O)c2ccc(C(=O)NC(C)C)cc2n2c(=O)n(Cc3ccc(F)cc3Cl)nc12 | -0.642 | 0% | 10.8 | -5.33% | -2.96%
CCC(C)NC(=O)c1ccc2c(=O)n(C)c3nn(CC(=O)Nc4ccccc4F)c(=O)n3c2c1 (stereo not given) | 5.91 | 0.41% | 10.9 | -0.028% | 3.31%
Cc1ccc(Cn2c(=O)c3ccccc3n3c(CCC(=O)N4CCC(C)CC4)nnc23)cc1 | -1.01 | 0% | 3.6 | -2.77% | -7.15%
COc1c[nH]c(CN2CCN(C)C3(CCC(=O)N(C)CC3)C2)cc1=O (stereo not given) | 1.65 | 1.47% | 2.45 | 1.25% | 4.72%
OCc1ccc(-c2ccc(-c3ccc(CO)s3)o2)s1 | -6.34 | -5.78% | 6.92 | -9.19% | -0.532%
CC1=NS(=O)(=O)N(C)C=C1C(=O)OCc1noc(-c2ccco2)n1 | -5.97 | -7.5% | -2.7 | -9.06% | -1.85%
CC1CCN(CCCNC(=O)C2CCc3sc(C(=O)N4CCCC4)cc3C2)CC1 (stereo not given) | -2 | -1.17% | -53.6 | -7.58% | -5.51%
CNc1nc(Nc2ccc(C(=O)N3CCOCC3)cc2OC)nc2[nH]cc(Cl)c12 | -6.07 | -6.2% | 6.93 | -11.4% | 2.12%
COc1ccc2c(c1)CCN=C2C[C@H]1CN(C(=O)c2ccc(F)cc2)CC[C@H]1CC(=O)O | -6.24 | -19.5% | -2.46 | -18.3% | -2.67%
O=C(C1CCCN([S+](=O)([O-])c2cccc(C(F)(F)F)c2)C1)N1CCC(c2nc3ncccc3[nH]2)C1 (stereo not given) | -8.49 | -4.78% | -3.94 | -19.1% | 10.1%
COc1cccc(CN2C(=O)c3cc4sccc4n3CC2(C)C(=O)NC2CCCCCC2)c1 (stereo not given) | -5.68 | 3.15% | -3.75 | -17.2% | -9.47%
CC1(C(=O)NC2CCCCC2)Cn2nc(-c3cccs3)cc2C(=O)N1Cc1cccc(Cl)c1 (stereo not given) | 2.13 | 0% | 10.2 | 6.31% | 3.3%
O=c1c(-c2ccc(O)cc2)coc2cc(O)cc(O)c12 | -10 | 7.87% | -7.86 | -17.9% | 3.15%
Cc1cccc(NC(=O)c2ncn3c2C(=O)N(C2CC2)C(C)(C(=O)NCc2ccc(F)cc2)C3)c1C (stereo not given) | 1.16 | 0% | 12.3 | 8.29% | 6.22%
O=C(NCc1ccc2c(c1)CCCO2)c1ccc(C2CCNC2)cc1 (stereo not given) | -2.58 | 1.02% | -36.5 | -8.7% | 6.42%
C[C@H]1[C@@H]2[C@@H](O)C([C@H](C)C(=O)NCc3cccs3)CC[C@@]2(C)CC[C@@H]1NC(=O)COc1ccccc1 (stereo not given in full) | -7.59 | -8.51% | -5.93 | -7.01% | -4.21%
COC(=O)c1ccc(OC(CO)C(O)c2ccc(O)c(OC)c2)c(OC)c1 (stereo not given) | -7.4 | -6.24% | 0.275 | -16.5% | -15.4%
Cc1cc(N2CCOCC2)ccc1Nc1nc(NC2CCCCC2)c2[nH]cnc2n1 | -4.88 | -5.08% | -19 | -74.8% | -28.5%
C[C@H](NC(=O)Cc1cc(F)cc(F)c1)C(=O)N[C@@H]1C(=O)N(C)c2ccccc2-c2ccccc21 | -4.3 | -1.87% and -13.5% and -22.3% | 5.26 | -38.4% and -39.4% and -46.7% | -13.8% and -8.07% and -19.1%
